In the test the test system is NCI-H322M multicellular tumor spheroids, viability (% test/control). Kind of test: Anticancer human tumor NCI-H322M cell line growth inhibition.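 On viability, T/C: spheroids exposed to compound for seven days before readout.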 The note with it: for viability, T/C: stronger effect = lower value. From the text:
Multicellular complex tumor spheroid response to DNA repair inhibitors in combination with DNA-damaging drugs
This study explores the anticancer activities of DNA-damaging drugs and inhibitors of DNA damage repair, both as single agents and in combinations. Complex tumor spheroids comprised of malignant cells, endothelial cells and mesenchymal stem cells served as an in vitro model for human solid tumors. This model system incorporates physiologically relevant features and patient-derived or established malignant cell lines with clinically relevant genetic alterations from many tumor types. Twenty-six patient-derived or established malignant cell lines were evaluated representing sarcoma, melanoma, small cell lung cancer (SCLC), non-small cell lung cancer (NSCLC), as well as bladder, ovarian and pancreatic cancers. The concentration ranges selected for each drug and investigational agent were based upon clinically achievable concentrations if the clinical Cmax of the agent was known.
Compounds. The drugs and compounds olaparib (NSC753686), talazoparib (NSC767125), berzosertib (NSC777718), elimusertib (NSC800525), nedisertib (NSC802822), VX-984 (NSC792969), AZD-1390 (NSC803789), temozolomide (NSC362856), topotecan (NSC609699), trabectedin (NSC813783), staurosporine (NSC755774), and gemcitabine (NSC613327) were obtained from the National Cancer Institute (NCI) Developmental Therapeutics Program Chemical Repository. The FDA-approved anticancer drug set is available from the Developmental Therapeutics Program at https://dtp.cancer.gov/organization/dscb/obtaining/available_plates.htm. […] The stock solutions were prepared in dimethyl sulfoxide (DMSO, Sigma-Aldrich, St. Louis, MO, cat. D2650) at 400-fold the tested concentration and stored at -70 degrees C. Prior to their use, the stock solutions were diluted in fresh medium and the final DMSO concentration in the assay was 0.25% (v/v). All drugs and investigational agents were tested over a range starting from a high concentration at or near the clinical Cmax and decreasing in half-log increments. If the clinical Cmax for an agent had not been determined, the highest concentration tested was 10 microM.
Cell Lines. The patient-derived cancer cell (PDC) lines: 156681-154-R-J1-PDC, 283228-195-R-J1-PDC, 287954-098-R-J1-PDC, 292921-168-R-J2-PDC, 349418-098-R-PDC, 425362-245-T-J1-PDC, 556581-035-R-J1-PDC, and BL0293-F563-PDC were received from the NCI Patient-Derived Models Repository (PDMR, https://pdmr.cancer.gov). The established cell lines HS-SY-2 (RRID:CVCL_8719), MPNST, and SYO-1 (RRID:CVCL_7146) were obtained from the Sloan Kettering Institute. The alveolar soft parts sarcoma cell line ASPS-1 (RRID:CVCL_S738) was established at the NCI and grown from internal seed stocks. The following established cell lines were purchased from the American Type Culture Collection (ATCC, Manassas, VA): G-401 (ATCC, cat. CRL-1441, RRID:CVCL_0270), SW982 (ATCC, cat. HTB-93, RRID:CVCL_1734), VA-ES-BJ (ATCC, cat. CRL-2138, RRID:CVCL_1785), NCI-H719 (ATCC, cat. CRL-5837, RRID:CVCL_1582), NCI-H196 (ATCC, cat. CRL-5823, RRID:CVCL_1509), NCI-H841 (ATCC, cat. CRL-5845, RRID:CVCL_1595), NCI-H1618 (ATCC, cat. CRL-5879, RRID:CVCL_1480), NCI-H1876 (ATCC, cat. CRL-5902, RRID:CVCL_1503), DMS 114 (ATCC, cat. CRL-2066; RRID:CVCL_1174), NCI-H211 (ATCC, cat. CRL-5824; RRID:CVCL_1529), and SW 1271 (ATCC, cat. CRL-2177, RRID:CVCL_1716). The small cell lung cancer cell line COR-L88 was purchased from Sigma-Aldrich (cat. 92031917-1VL, RRID:CVCL_1141). The non-small cell lung cancer cell lines NCI-H226 (RRID:CVCL_1544) and NCI-H322M (RRID:CVCL_1557) were established at the NCI and grown from internal seed stocks. Pooled donor human umbilical vein endothelial cells (HUVEC, Lonza, cat. CC-2519) and human mesenchymal stem cells (hMSC, Lonza, cat. PT-2501) were purchased from Lonza (Walkersville, MD).
Cell Culture. All cells were maintained in an incubator at 37 degrees C and 5% CO2 with 95% humidity. […]

A number of entries come with more than one value. This is not the full list of results. There may be further records. Values given together are repeats in other runs, samples, wells, individuals or studies. Counts like (3×) stand for listed records that agree.

As to `CC[C@@]1(O)C(=O)OCc2c1cc1n(c2=O)Cc2cc3c(CN(C)C)c(O)ccc3nc2-1`, the viability, T/C by setting is: (compound alone 0.00949 µM) 80.9, 91.8, 95.6, 94.1, 75.5, 82.9, 68.2, 76, 94.3, 70.2%; (compound alone 0.03 µM) 79.1, 84.1, 86, 91.7, 67.7, 83, 62.5, 72.2, 75, 75.7%. In addition, where the note is “compound alone, run of 12/02/2019”, the IC50 was 219 nM, 277 nM, > 300 nM, 258 nM.

For `COc1cc2c(cc1O)CCNC21CSC2c3c(OC(C)=O)c(C)c4c(c3C(COC1=O)N1C(O)C3Cc5cc(C)c(OC)c(O)c5C(C21)N3C)OCO4` (stereo not given), the viability, T/C is, setting by setting: (compound 30 pM) 85.5, 76.5, 76.8, 88.8, 103, 76 (2×), 77.4, 94.7, 82.1%; (compound alone 0.000949 µM) 95.2, 82.8, 91.3, 75.3, 75.2, 70.6, 81.5, 73, 87.8, 56.8%.

In the case of `Cn1nnc2c(C(N)=O)ncn2c1=O`, the viability, T/C is 90.5 (2×), 104, 96.9, 85.6, 89.6, 101, 113, 98.4, 91.3% (compound alone 1 µM); 86.8, 92.5, 75.4, 85.7, 98.3, 105, 96, 99.4, 90.6, 88.6% (compound alone 3.16 µM); 92.2, 89.8, 71.1, 83.2, 99.6, 90.1, 103, 93.2, 81.4, 71.9% (compound alone 10 µM); 82, 99.1, 89.5, 79.3, 94.4, 92.3, 107, 92.1, 94.8, 96.2% (compound alone 31.6 µM); 89.2, 110, 99.5, 92.2, 119, 106, 95.1, 102, 86.5, 81% (compound alone 100 µM).

These data come from PubChem BioAssay AID1845211 (Molecular Pharmacology Branch, DTP, NCI, 2023).
